{"source": "PubChem BioAssay AID485294", "about": "(National Center for Advancing Translational Sciences (NCATS), 2010)", "note": "In all, about 370,000 compounds went through this assay and about 150 (0.041%) were called active. Inconclusive results, whose numbers are uncertain, are shown with a selection of clear calls. Calls follow the shape of the dose curve; as a rule, active = well fitted inhibition curve with a large enough effect; inconclusive = small, poorly fitted or top-dose-only effect; inactive = flat fitted curve, though single readings scatter. No potency is given beside an inconclusive call; the fits are too rough. Potency is read from the fitted curve at half-maximal effect; tags tell the direction and shape of the fitted curve.", "data": [{"biological_target": "Beta-lactamase (Escherichia coli (strain K12)) (UniProt P00811)", "sequence (P00811 whole entry, looked up)": "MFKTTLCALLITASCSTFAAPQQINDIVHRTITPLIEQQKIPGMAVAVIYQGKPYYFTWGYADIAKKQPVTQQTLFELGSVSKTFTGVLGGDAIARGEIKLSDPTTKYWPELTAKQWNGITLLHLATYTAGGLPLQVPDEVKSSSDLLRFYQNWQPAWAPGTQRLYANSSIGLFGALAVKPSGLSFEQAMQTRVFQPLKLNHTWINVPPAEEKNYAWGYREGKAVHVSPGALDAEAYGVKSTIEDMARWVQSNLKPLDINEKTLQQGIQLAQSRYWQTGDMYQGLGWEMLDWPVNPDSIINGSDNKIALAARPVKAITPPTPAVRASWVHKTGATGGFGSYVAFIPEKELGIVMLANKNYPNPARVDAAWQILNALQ", "assay": "qHTS Inhibitors of AmpC Beta-Lactamase (assay with detergent); also: nearly all actives have a fitted effect of over 25% in size", "details": "AmpC hydrolysis of nitrocefin, absorbance 480 nm, 0.01% Triton; series mostly up to 114 µM", "method_in_brief": "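AmpC (5.3 nM in the dispensed reagent) in 20 mM phosphate pH 7.0 with 0.01% (detergent screen) or 0.0001% Triton X-100 was preincubated with compounds for 15 min at room temperature. Nitrocefin was then added from an 800 uM solution, and hydrolysis was followed at 480 nm.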", "values": [{"molecule": "Cc1cc(C)c(C#N)c(SCc2nnc(-c3ccccc3[N+](=O)[O-])o2)n1", "Potency": "inactive"}, {"molecule": "C/C(=N\\NC(=O)COc1ccccc1[N+](=O)[O-])c1cccc(NC(=O)c2ccncc2)c1", "Potency": "inactive"}, {"molecule": "CCc1ccccc1NC(=O)CN(C)C(=O)c1cccc(S(=O)(=O)N2CCCCCC2)c1", "Potency": "inconclusive [inhibitor, full curve, poor fit]"}, {"molecule": "Cc1ccc(-n2nnc3c(=O)n(CC(=O)c4ccccc4)cnc32)cc1", "Potency": "inconclusive [inhibitor, full curve, poor fit]"}, {"molecule": "CCOc1ccccc1C1NC(=O)c2ccccc2O1", "note": "(stereo not given)", "Potency": "inconclusive [inhibitor, partial curve, poor fit]"}, {"molecule": "S=C(Nc1ccccc1)Nc1ccc2cn[nH]c2c1", "Potency": "inactive"}, {"molecule": "CCOc1ccc(NC(=O)c2ccc(-c3csc(C)n3)cc2)cc1", "Potency": "inactive"}, {"molecule": "CC(C)C(c1nnnn1C1CCCCC1)N1CCc2ccccc21", "note": "(stereo not given)", "Potency": "inconclusive [inhibitor, partial curve, poor fit]"}, {"molecule": "O=C(O)CCCCCNS(=O)(=O)c1ccc(Cl)cc1", "Potency": "inconclusive [inhibitor, full curve, poor fit]"}, {"molecule": "CC1(C)OC1COc1c2occc2cc2ccc(=O)oc12", "note": "(stereo not given)", "Potency": "inconclusive [inhibitor, full curve, poor fit]"}, {"molecule": "CN(C)S(=O)(=O)c1cc(NC(=O)COC(=O)CCc2ccccc2)ccc1Cl", "Potency": "inconclusive [inhibitor, full curve, poor fit]"}, {"molecule": "CCOCCCNC(=O)C(c1ccccc1)N(Cc1cccs1)C(=O)c1ccccc1O", "note": "(stereo not given)", "Potency": "inconclusive [inhibitor, full curve, poor fit]"}, {"molecule": "CC(=O)O/N=C1\\C(=O)N(Cc2ccc(C)cc2)c2ccccc21", "Potency": "inconclusive [inhibitor, full curve, poor fit]"}, {"molecule": "O=S(=O)(NCc1ccccc1)c1cnc[nH]1", "Potency": "inconclusive [inhibitor, partial curve, poor fit]"}, {"molecule": "CCN(CC)C(=O)COc1ccc(CC(=O)O)cc1OC", "Potency": "inconclusive [inhibitor, partial curve]"}, {"molecule": "COc1cccc(CNc2ccc3[nH]c(=O)[nH]c3c2)c1OCc1ccc(F)cc1", "Potency": "inconclusive [inhibitor, single point]"}, {"molecule": "O=C(COc1ccc(S(=O)(=O)NC2CCCCC2)cc1Cl)Nc1ccc2c(c1)OCO2", "Potency": "inactive"}, {"molecule": "Cc1nc(=O)cc(-c2ccccc2)n1-c1ccccc1", "Potency": "inconclusive [inhibitor, full curve, poor fit]"}, {"molecule": "CCC(C)SCc1nc2ccccc2[nH]1", "note": "(stereo not given)", "Potency": "inconclusive [inhibitor, partial curve, poor fit]"}, {"molecule": "Nc1ccc2oc(Cc3ccc(Cl)cc3)nc2c1", "Potency": "inactive"}, {"molecule": "CC(C)CN(CC(C)C)C(=O)Nc1cccc([N+](=O)[O-])c1", "Potency": "inconclusive [inhibitor, full curve, poor fit]"}, {"molecule": "Nc1cc(C(=O)c2ccccc2)ccc1[N+](=O)[O-]", "Potency": "inconclusive [inhibitor, full curve, poor fit]"}, {"molecule": "CC(=O)N=Nc1[nH]c(N)c2ccccc12", "Potency": "inconclusive [inhibitor, full curve, poor fit]"}, {"molecule": "CCOc1cc(-c2sc(Nc3ccc(CC)cc3)n[n+]2-c2ccccc2)ccc1OC", "Potency": "inactive"}, {"molecule": "CO[C@H]1[C@@H](OC)CC(OC2OC(CO)C(O)C(O)C2O)/C(=C\\C#N)[C@@H]1O", "note": "(stereo not given in full)", "Potency": "inconclusive [inhibitor, full curve, poor fit]"}, {"molecule": "Cc1ccc(OCCC(=O)NNC(=O)c2nn(C)c(=O)c3ccccc23)cc1", "Potency": "inconclusive [inhibitor, full curve, poor fit]"}, {"molecule": "Cc1cc(=O)oc2cc(OCC(=O)N3CCCC(C)C3)ccc12", "note": "(stereo not given)", "Potency": "inactive"}, {"molecule": "O=C1C(NS(=O)(=O)c2ccc(Cl)cc2)=C(N2CCCCC2)C(=O)c2ccccc21", "Potency": "inactive"}, {"molecule": "Cc1ccc(-c2cc3nc(C)cc(NCc4ccco4)n3n2)cc1", "Potency": "inconclusive [inhibitor, full curve, poor fit]"}, {"molecule": "Nc1ccc(-c2c3ccc(=O)cc-3oc3cc(O)ccc23)c(C(=O)O)c1", "Potency": "inconclusive [inhibitor, partial curve, poor fit]"}, {"molecule": "Cc1ccccc1OCC(=O)N/N=C/c1ccc2c(c1)OCCO2", "Potency": "inconclusive [inhibitor, partial curve, poor fit]"}, {"molecule": "CC(C)NC(=S)N/N=C/c1ccc(C(C)(C)C)cc1", "Potency": "inactive"}, {"molecule": "O=C(O)C1CC=CCC1C(=O)Nc1ccc(N2CCN(Cc3ccccc3)CC2)cc1", "note": "(stereo not given)", "Potency": "inconclusive [inhibitor, full curve]"}, {"molecule": "CCC(Oc1ccc(C)cc1)C(=O)Nc1ccc2c(c1)n(C)c(=O)n2C", "note": "(stereo not given)", "Potency": "inconclusive [inhibitor, partial curve, poor fit]"}, {"molecule": "O=C(c1ccccc1)C1CCN(C(=O)C2CCC(=O)N(Cc3cccc(F)c3)C2)CC1", "note": "(stereo not given)", "Potency": "inconclusive [inhibitor, partial curve, poor fit]"}, {"molecule": "O=C(Nc1cccc2ccccc12)N1CC=C(c2ccccc2)CC1", "Potency": "inactive"}, {"molecule": "CC(=O)Nc1ccc(S(=O)(=O)N(Cc2ccccc2)Cc2ccccc2)cc1", "Potency": "inactive"}, {"molecule": "C=CCOc1c(CCC)cc(CCC)cc1C(N)=O", "Potency": "inconclusive [inhibitor, full curve, poor fit]"}, {"molecule": "COc1ccc(CCNC(=O)C(=O)NCC(c2cccnc2)N2CCN(c3ccccc3)CC2)cc1", "note": "(stereo not given)", "Potency": "inactive"}, {"molecule": "O=C(NCCCCl)C1CC(=O)N(CCc2ccc(F)cc2)C1", "note": "(stereo not given)", "Potency": "inconclusive [inhibitor, full curve]"}, {"molecule": "CCn1cnc2cc(NC(=O)c3ccco3)ccc21", "Potency": "inconclusive [inhibitor, partial curve, poor fit]"}, {"molecule": "CCCNC(=O)CS(=O)Cc1nc(-c2ccccc2C)oc1C", "note": "(stereo not given)", "Potency": "inconclusive [inhibitor, partial curve, poor fit]"}, {"molecule": "O=C(c1ccc(Cl)cc1)c1cn(Cc2ccccc2)c2cc3c(cc2c1=O)OCCO3", "Potency": "inconclusive [inhibitor, single point]"}, {"molecule": "Cc1ccc(N2CC(C(=O)Nc3cc(C(F)(F)F)ccc3N3CCCC3)CC2=O)cc1", "note": "(stereo not given)", "Potency": "inconclusive [inhibitor, full curve, poor fit]"}, {"molecule": "CCc1cc(=O)oc2c(CNCc3c(F)cccc3Cl)c(O)ccc12", "Potency": "inactive"}, {"molecule": "Cc1ccc(NC(=O)C2CCCN(S(=O)(=O)c3ccc4c(c3)CCCC(=O)N4)C2)cc1Cl", "note": "(stereo not given)", "Potency": "inactive"}, {"molecule": "CCOC(=O)C1=C(NC(=S)NC(=O)c2ccccc2)c2ccccc2CC12CCCC2", "Potency": "inactive"}, {"molecule": "COc1ccc2nc(NC(=O)c3cccnc3SC)sc2c1", "Potency": "inconclusive [inhibitor, partial curve, poor fit]"}, {"molecule": "Cc1c(Cl)cccc1NC(=O)c1cc(-c2ccco2)on1", "Potency": "inconclusive [inhibitor, partial curve, poor fit]"}, {"molecule": "CCn1c(CSCc2ccc(C)cc2)nnc1SCC(=O)NCc1ccccc1", "Potency": "inconclusive [inhibitor, full curve, poor fit]"}, {"molecule": "COc1ccc(-c2cc(=O)c3ccccc3n2C)cc1", "Potency": "inconclusive [inhibitor, full curve]"}, {"molecule": "COc1cccc(CNc2ccccc2O)c1OCc1ccccc1F", "Potency": "inconclusive [inhibitor, full curve, poor fit]"}, {"molecule": "COc1cc(NC(=S)NCCC(c2ccccc2)c2ccccc2)cc(OC)c1", "Potency": "inconclusive [inhibitor, partial curve, poor fit]"}, {"molecule": "Cc1ccc(C)c(OCc2cc(C(=O)N3CC[C@H](O)C3)no2)c1", "Potency": "inactive"}, {"molecule": "CN1CCN(S(=O)(=O)c2cccc(C(=O)Nc3nc(-c4ccccc4)cs3)c2)CC1", "Potency": "inactive"}, {"molecule": "CCOc1ccc(NC(=O)CN(C)S(=O)(=O)c2ccc3[nH]c4c(c3c2)CCCC4)cc1", "Potency": "inactive"}, {"molecule": "CC12CN3CC(C)(CN(C1)C3c1ccc([N+](=O)[O-])o1)C2=O", "note": "(stereo not given)", "Potency": "inactive"}, {"molecule": "COc1cc(-c2nnc(NC(=O)CS(=O)(=O)c3ccc(F)cc3)o2)cc(OC)c1OC", "Potency": "inactive"}, {"molecule": "O=C(NNc1nc2c(F)cccc2s1)C1=COCCO1", "Potency": "inactive"}, {"molecule": "COc1ccc(C(=O)Nc2ccc3c(c2)nc2n3CCSC2)cc1", "Potency": "inactive"}, {"molecule": "Cc1ccc(C)c(OCCC(=O)OCC(=O)N2CCN(c3ccccc3)CC2)c1", "Potency": "inconclusive [inhibitor, full curve, poor fit]"}, {"molecule": "O=C(NCCS(=O)(=O)NCc1ccc2c(c1)OCO2)c1ccccc1", "Potency": "inconclusive [inhibitor, partial curve]"}, {"molecule": "O=C(CCn1c(=O)c2ccccc2n(Cc2cccc(Cl)c2)c1=O)NCCc1ccccc1", "Potency": "inactive"}, {"molecule": "COc1ccc(NC(=O)c2cccnc2NCCc2ccccc2)cc1", "Potency": "inactive"}, {"molecule": "CC(=O)c1cccc(NC(=O)CCc2nnc3ccc(N4CCN(C)CC4)nn23)c1", "Potency": "inconclusive [inhibitor, full curve, poor fit]"}, {"molecule": "CC(C)CCn1c(Sc2nc3ccccc3s2)nc2c1c(=O)[nH]c(=O)n2C", "Potency": "inconclusive [inhibitor, full curve, poor fit]"}, {"molecule": "O=C(NCc1ccccc1)C(=O)NCC(c1ccco1)S(=O)(=O)c1cccs1", "note": "(stereo not given)", "Potency": "inactive"}, {"molecule": "CCc1nn(CC(=O)Nc2cccc(C(C)=O)c2)c(=O)c2cc3sccc3n12", "Potency": "inactive"}, {"molecule": "CC(C)(C)OC(=O)CNC(=O)c1[nH]cnc1C(=O)N[C@@H](Cc1ccccc1)C(=O)OC(C)(C)C", "Potency": "inactive"}, {"molecule": "CCCCN(C(=O)c1ccc(-n2nc(C)cc2C)cc1)c1c(N)n(CCC)c(=O)[nH]c1=O", "Potency": "inconclusive [inhibitor, full curve, poor fit]"}]}]}
